Measurements reported in the BET-seq Pho4 binding data (Le et al. 2018).
The list shows a part of the results. The energies were worked out here from pooled read counts, against the library average; single values are noisy.

Molecular target: T1, Pho4 (S. cerevisiae) (UniProt P07270)
T1 sequence: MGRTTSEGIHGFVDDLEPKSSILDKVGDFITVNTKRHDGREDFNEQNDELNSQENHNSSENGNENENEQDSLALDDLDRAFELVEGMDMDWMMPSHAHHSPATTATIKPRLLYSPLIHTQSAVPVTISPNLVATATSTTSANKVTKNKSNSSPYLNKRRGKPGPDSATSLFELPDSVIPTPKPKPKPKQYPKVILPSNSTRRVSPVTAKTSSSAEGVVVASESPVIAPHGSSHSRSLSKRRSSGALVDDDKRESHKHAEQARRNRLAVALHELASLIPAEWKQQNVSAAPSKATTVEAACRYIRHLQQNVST
Assay: relative binding free energy (BET-seq); higher = weaker binding
Conditions: reference: library average

| Sequence | relative binding free energy |
| --- | --- |
| TTGGGCACGTGTGTTC | 0.02 kcal/mol |
| AGTGTCACGTGATGGC | 0.31 kcal/mol |
| GGGGGCACGTGGTCGA | -0.16 kcal/mol |
| ATATGCACGTGGGCAG | -0.22 kcal/mol |
| TGAGACACGTGGGTCG | -0.2 kcal/mol |
| CGGGACACGTGTGAGT | 0.11 kcal/mol |
| GTGGGCACGTGGCAGC | -0.13 kcal/mol |
| ATGTTCACGTGTGTAG | 0.27 kcal/mol |
| TGTTGCACGTGCCGTA | 0.02 kcal/mol |
| AAGTACACGTGTTAGG | 0.09 kcal/mol |
| AATGGCACGTGCGTTT | -0.21 kcal/mol |
| ACGTGCACGTGATAGG | 0.03 kcal/mol |
| CACGGCACGTGGGCGG | -0.24 kcal/mol |
| AGTGCCACGTGATTGT | -0.06 kcal/mol |
| TGGTTCACGTGCTTTA | 0.17 kcal/mol |
| AGATGCACGTGTTGTG | -0.15 kcal/mol |
| TGTGACACGTGGGGGA | -0.08 kcal/mol |
| TTGTACACGTGTTGAA | 0.09 kcal/mol |
| GGTGTCACGTGGGCGC | 0 kcal/mol |
| TGTGTCACGTGTAAAC | 0.12 kcal/mol |
| AGCTTCACGTGGAAGT | 0.15 kcal/mol |
| AAGCTCACGTGGGTTA | 0.12 kcal/mol |
| TTTATCACGTGGCGGG | 0.1 kcal/mol |

| Sequence | relative binding free energy |
| --- | --- |
| GTAGTCACGTGGGTAA | 0.13 kcal/mol |
| AAGGTCACGTGTGTGT | 0.22 kcal/mol |
| AAGTGCACGTGTTGGA | -0.04 kcal/mol |
| ATTATCACGTGTGTTC | 0.18 kcal/mol |
| TCTGGCACGTGTTAGA | 0.04 kcal/mol |
| CTAGGCACGTGTAGTT | 0.07 kcal/mol |
| CGGTTCACGTGTCGTA | 0.18 kcal/mol |
| GAAGTCACGTGGTAGG | 0.02 kcal/mol |
| GTGTACACGTGATAGG | 0.21 kcal/mol |
| GACGTCACGTGGGGTG | -0.07 kcal/mol |
| TGTTACACGTGATGGA | 0.23 kcal/mol |
| GAGGGCACGTGTAGTA | -0.12 kcal/mol |
| ATTCACACGTGGGGCT | -0.06 kcal/mol |
| TTTGGCACGTGCAAGT | -0.17 kcal/mol |
| AGTTACACGTGTGTGT | 0.05 kcal/mol |
| GTCGGCACGTGGCGGT | -0.14 kcal/mol |
| GCTCTCACGTGAGGGG | 0.39 kcal/mol |
| GTAATCACGTGATGGT | 0.35 kcal/mol |
| TGAAACACGTGTCGGT | 0 kcal/mol |
| TGAGACACGTGTTGTT | 0.01 kcal/mol |
| GTAGACACGTGAGGTA | 0.34 kcal/mol |
| TGGGACACGTGACGGT | 0.17 kcal/mol |
| ATGAGCACGTGGGCTA | -0.06 kcal/mol |

| Sequence | relative binding free energy |
| --- | --- |
| TCTGACACGTGTGGGA | -0.06 kcal/mol |
| TCAGTCACGTGGTTGA | 0.11 kcal/mol |
| TGAAGCACGTGGGAAG | -0.1 kcal/mol |
| AAGTTCACGTGTAATT | 0.29 kcal/mol |
| ATTTTCACGTGGGCTC | 0.16 kcal/mol |
| CTCGTCACGTGCGGTG | -0.03 kcal/mol |
| AGAGCCACGTGGGGGG | -0.21 kcal/mol |
| AGTGGCACGTGTCGTG | -0.07 kcal/mol |
| AGGAACACGTGGTGTG | -0.14 kcal/mol |
| GATGTCACGTGTAGAT | 0.32 kcal/mol |
| GGCGGCACGTGGAGGG | -0.11 kcal/mol |
| CATGGCACGTGATTAG | 0.01 kcal/mol |
| TAGTGCACGTGGATAG | 0.05 kcal/mol |
| GTGTTCACGTGGAACT | 0.24 kcal/mol |
| CTCTGCACGTGATGGT | 0.13 kcal/mol |
| GGCGCCACGTGGGCTG | -0.21 kcal/mol |
| GGTGTCACGTGTTGGG | 0.24 kcal/mol |
| AATAACACGTGGGGGG | -0.15 kcal/mol |
| CTTGGCACGTGAGGCG | 0.06 kcal/mol |
| TATGACACGTGGGCGT | -0.27 kcal/mol |
| GGGTTCACGTGGGAAT | 0.43 kcal/mol |
| AGGTTCACGTGAGACG | 0.22 kcal/mol |
| ATTGGCACGTGGCGTA | -0.17 kcal/mol |

| Sequence | relative binding free energy |
| --- | --- |
| ATGGTCACGTGTGCTT | 0.12 kcal/mol |
| TTAATCACGTGAGCTT | 0.25 kcal/mol |
| GAGAACACGTGATGGT | 0.18 kcal/mol |
| GGGGACACGTGTTTTA | 0.18 kcal/mol |
| TGTCACACGTGAGGGA | 0.18 kcal/mol |
| CAATTCACGTGATGTG | 0.21 kcal/mol |
| GGTGTCACGTGTCTGA | 0.3 kcal/mol |
| GGAGCCACGTGGGGGA | -0.23 kcal/mol |
| TTGTGCACGTGGACGT | 0.01 kcal/mol |
| TAATTCACGTGTTTCG | 0.24 kcal/mol |
| ATGGGCACGTGGATAT | -0.21 kcal/mol |
| GGTTACACGTGCTGCG | 0.15 kcal/mol |
| TTTGACACGTGAAGGA | 0.26 kcal/mol |
| GTGCACACGTGATTGG | 0.16 kcal/mol |
| GAGGTCACGTGGATGC | 0.1 kcal/mol |
| TGTGGCACGTGCGATC | -0.01 kcal/mol |
| TTAGGCACGTGGACGA | -0.09 kcal/mol |
| TAAGACACGTGTATTT | 0.06 kcal/mol |
| CTGTACACGTGTGGAT | 0.1 kcal/mol |
| TTGGACACGTGACGGG | 0.17 kcal/mol |
| TGAGTCACGTGGATAT | 0.18 kcal/mol |
| AGATTCACGTGCTGTT | 0.17 kcal/mol |
| AGGGTCACGTGGGTTA | 0.08 kcal/mol |

| Sequence | relative binding free energy |
| --- | --- |
| CTGATCACGTGTGGAT | 0.33 kcal/mol |
| GTGAACACGTGTTTGA | 0.01 kcal/mol |
| AAATACACGTGGGGTT | 0.1 kcal/mol |
| GTGCGCACGTGGGTGT | -0.31 kcal/mol |
| TAGTACACGTGTGTGG | 0.14 kcal/mol |
| GTACTCACGTGAAGGG | 0.36 kcal/mol |
| GGTGTCACGTGAGCAA | 0.34 kcal/mol |
| ACGTGCACGTGTAGTT | -0.02 kcal/mol |
| GATAACACGTGGTTAT | -0.02 kcal/mol |
| TTATTCACGTGATACG | 0.18 kcal/mol |
| GATTGCACGTGGAAAG | 0.19 kcal/mol |
| GTGACCACGTGGATGG | -0.06 kcal/mol |
| TGGGCCACGTGGTAAG | -0.16 kcal/mol |
| TATTGCACGTGAGATT | 0.17 kcal/mol |
| GTTTGCACGTGGTTGC | -0.14 kcal/mol |
| GGAGCCACGTGGTGTA | -0.05 kcal/mol |
| AGGGCCACGTGGGCTG | -0.35 kcal/mol |
| AGTATCACGTGTTAAG | 0.07 kcal/mol |
| GCTTTCACGTGGAGTT | 0.39 kcal/mol |
| TGTTTCACGTGTCGCA | 0.3 kcal/mol |
| GGTCGCACGTGATTTA | 0.21 kcal/mol |
| TCACTCACGTGGTGTG | 0.06 kcal/mol |
| GTATGCACGTGTGGTT | 0.04 kcal/mol |
